Among the data in patent US20190284241A1 (Affibody, published 2019) are binding result and IC50 values, retold here.

Assay [1] has as its target T1, cynomolgus FcRn (Biorbyt, cat. no. orb99075) (cynomolgus, UniProt Q8SPV9 24-297; Q8SPW0 21-119, limits assumed).
T1 construct: Bought protein, immobilised on a CM5 chip; also called cFcRn
The experiment in a line: Biacore, cFcRn immobilized (1098 RU), 90 nM His6-tagged Z variant, pH 6.0.

The target in assay [2] is T2, human FcRn-eGFP on transduced HeLa cells (human, UniProt P55899 24-365; P16213 in part).
T2 construct: Fixed, saponin-permeabilised HeLa cells; also called hFcRn-eGFP; hFcRn; not shown: eGFP at the cytoplasmic tail
T2 sequence (P55899 24-365, chain 1 of 2): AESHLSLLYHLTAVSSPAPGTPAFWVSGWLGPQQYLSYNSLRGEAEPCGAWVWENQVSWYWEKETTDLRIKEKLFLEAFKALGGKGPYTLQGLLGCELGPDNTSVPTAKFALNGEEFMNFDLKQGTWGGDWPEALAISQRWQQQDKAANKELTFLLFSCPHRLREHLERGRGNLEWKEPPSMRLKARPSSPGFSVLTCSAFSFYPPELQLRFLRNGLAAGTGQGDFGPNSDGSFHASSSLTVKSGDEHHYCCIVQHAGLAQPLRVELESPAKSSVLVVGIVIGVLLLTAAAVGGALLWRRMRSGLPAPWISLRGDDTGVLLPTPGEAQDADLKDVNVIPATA
T2 sequence (P16213 21-119, chain 2 of 2, further chain): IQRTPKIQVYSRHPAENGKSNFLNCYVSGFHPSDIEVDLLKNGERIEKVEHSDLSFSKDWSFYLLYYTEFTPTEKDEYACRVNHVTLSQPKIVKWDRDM
The experiment in a line: flow cytometry, hFcRn-eGFP HeLa cells, blocks Alexa647-hIgG, pH 6.0.

T1 sequence (Q8SPV9 24-297 limits assumed, chain 1 of 2): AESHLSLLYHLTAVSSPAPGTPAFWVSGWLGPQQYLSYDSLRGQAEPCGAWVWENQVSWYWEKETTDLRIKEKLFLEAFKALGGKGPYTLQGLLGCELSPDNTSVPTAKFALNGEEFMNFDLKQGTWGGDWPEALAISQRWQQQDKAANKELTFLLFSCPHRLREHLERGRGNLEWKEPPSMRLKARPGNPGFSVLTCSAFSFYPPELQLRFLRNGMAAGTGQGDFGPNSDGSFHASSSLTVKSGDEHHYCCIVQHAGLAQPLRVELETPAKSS
T1 sequence (Q8SPW0 21-119 limits assumed, chain 2 of 2, further chain): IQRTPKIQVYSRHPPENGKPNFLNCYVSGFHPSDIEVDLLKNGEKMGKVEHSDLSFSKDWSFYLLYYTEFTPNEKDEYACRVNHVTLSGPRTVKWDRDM

B1: His6-tagged Z18633 (designed binder)
chain: AEAKFAKEWQQAAHEIRWLPNLTFDQRVAFIHKLRDDPSQSSELLSEAKKLSESQAPK
notes: not shown: N-terminal His6 tag
As for B1, in assay [1], the binding result is reported as “binds”.

B2: His6-tagged Z18633 (designed binder)
chain: B1 chain
notes: Y5F, N52S, D53E and N-terminal AE; not shown: N-terminal His6-tag
B2: the concentration for half-maximal inhibition (IC50) in assay [2] was determined as 57 nM.
